Source: PubChem BioAssay AID485281 (National Center for Advancing Translational Sciences (NCATS), 2010)
Out of some 350,000 compounds screened, about 260 (0.074%) were called active. The shares of active, inactive and inconclusive entries below differ from those in the screen. Calls follow the shape of the dose curve; as a rule, active = well fitted inhibition curve with a large enough effect; inconclusive = small, poorly fitted or top-dose-only effect; inactive = no such curve, though single readings can be large or run the other way. A potency beside an inconclusive call is a rough fit, not a confirmed value.

Each molecule was assayed against Ferritin light chain (Equus caballus) (UniProt P02791) (assay: qHTS Assay for Identification of Novel General Anesthetics). Conditions: apoferritin/1-aminoanthracene competitive binding, fluorescence; activity change, negative = displacement: at 77.5 µM (top of the series).
Method in brief: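 Horse-spleen apoferritin (10 uM) was mixed with 50% saturated 1-aminoanthracene in PBS, exposed to compounds for 10 min at room temperature, and read for fluorescence (ex 380 nm, em 535 nm). Competitive displacement was fitted with a four-parameter Hill equation.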
% is scaled to controls: 0 for no effect and ±100 for the full control effect; potency is read from the fitted curve at half-maximal effect; tags tell the direction and shape of the fitted curve.
Also: nearly all actives have a fitted effect of over 20% in size.

Sequence of UniProt P02791 (P02791 whole entry, looked up): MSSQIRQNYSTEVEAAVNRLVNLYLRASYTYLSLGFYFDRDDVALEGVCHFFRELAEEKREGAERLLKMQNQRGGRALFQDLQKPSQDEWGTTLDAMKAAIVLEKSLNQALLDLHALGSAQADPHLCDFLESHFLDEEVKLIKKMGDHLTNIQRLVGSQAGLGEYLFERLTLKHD

Potency, inconclusive:
NC(=O)COC(=O)CC12CC3CC(CC(Br)(C3)C1)C2 14.1 µM [inhibitor, partial curve]
CCOC(=O)c1c(C)[nH]c(C(=O)CSc2nnc(CC(C)c3ccccc3)o2)c1C (configuration not stated) 39.8 µM [inhibitor, single point]
O=C(Nc1ccc(Br)cc1)c1cccn1-c1ncc(C(F)(F)F)cc1Cl 7.94 µM [inhibitor, partial curve]
CN(C)Cc1nc2ccccc2c(=O)n1Cc1nc(-c2cccc([N+](=O)[O-])c2)cs1 17.8 µM [inhibitor, partial curve]
CCCCOc1ccc(OC(=O)c2cccnc2)cc1 25.1 µM [inhibitor, partial curve]
O=C(Nc1ccccc1)C1=C[C@H](c2ccc3c(c2)OCO3)C[C@H](OCCCCO)O1 35.5 µM [inhibitor, partial curve]
COc1cccc(Oc2cncnc2-c2ccc(OC)cc2O)c1 31.6 µM [inhibitor, partial curve]
COc1ccc(C2=Nn3c(nnc3-c3cccc(OC)c3)SC2)cc1 31.6 µM [inhibitor, partial curve]
COc1ccc(Nc2cc(C)c3c(O)cccc3n2)cc1 39.8 µM [inhibitor, single point]
CC1Cc2ccccc2N1C(=O)CSc1nnnn1C(C)C (configuration not stated) 4.47 µM [inhibitor, full curve]
Cc1ccccc1NC(=S)NC(=O)c1cncc(Br)c1 28.2 µM [inhibitor, partial curve]
O=[N+]([O-])c1ccccc1Nc1c2ccccc2nc2ccccc12 35.5 µM [inhibitor, partial curve]
COC(=O)c1cc(CSc2nc3ccc(C)cc3[nH]2)oc1C 35.5 µM [inhibitor, single point]
CSc1nsc(SCc2ccc(F)cc2)n1 56.2 µM [inhibitor, single point]
CC1=C(C(=O)OCC(C)C)C(c2ccsc2)NC(=O)N1 (configuration not stated) 25.1 µM [inhibitor, single point]
O=C(NCCc1ccco1)c1cc(COc2cccc(C(F)(F)F)c2)on1 15.8 µM [inhibitor, partial curve]
CCOc1ccc(N2CC(=O)SC2=S)cc1 39.8 µM [inhibitor, partial curve]
COC(=O)C1CSC(C(=O)OC)N1C(=O)Nc1ccccc1 (configuration not stated) 31.6 µM [inhibitor, partial curve]
CN1C(=O)C2(Oc3ccccc3C3CC(c4ccccc4)=NN32)c2ccccc21 (configuration not stated) 3.16 µM [inhibitor, full curve, poor fit]
CC(=O)c1ccc(OCc2cc(C(=O)N3CC[C@@H]4CCCC[C@H]4C3)no2)cc1 35.5 µM [inhibitor, partial curve]
CCn1cc(C(=O)NC(=S)Nc2ccccc2[N+](=O)[O-])cn1 35.5 µM [inhibitor, single point]
Cc1ccc(S(=O)(=O)NCCc2ccccc2)cc1 17.8 µM [inhibitor, partial curve]
CCCCC(=O)Nc1ccc(C(=O)OC2CCCCC2)cc1 8.91 µM [inhibitor, partial curve]
COC(=O)c1ccc(Cl)c(NC(=O)NC23CC4CC(CC(C4)C2)C3)c1 31.6 µM [inhibitor, partial curve, poor fit]
Cn1nc(C(C)(C)C)cc1C(=O)Nc1nc2c(s1)C(=O)CC(C)(C)C2 20 µM [inhibitor, partial curve]
NC(=O)CC(NC(=O)Cc1cccc2ccccc12)c1ccc(N2CCCCCCC2)c([N+](=O)[O-])c1 (configuration not stated) 22.4 µM [inhibitor, partial curve]
O=C(COC(=O)C1(c2ccccc2)CC1)N1CCN(c2ccc(F)cc2)CC1 31.6 µM [inhibitor, partial curve]
O=C(CCC(=O)N1CCSc2ccccc21)Nc1cccc(F)c1 25.1 µM [inhibitor, partial curve]
O=C(Nc1ccc(Cc2ccncc2)cc1)C1CCC(N2C(=O)C3CCCCC3C2=O)CC1 (configuration not stated) 15.8 µM [inhibitor, partial curve]
COC(=O)c1cccc(NC(=O)c2ccc3c(c2)C(=O)N(CC2CCCO2)C3=O)c1 (configuration not stated) 39.8 µM [inhibitor, partial curve]
S=C(Nc1ccccc1)N1CCCCC1 31.6 µM [inhibitor, partial curve]
CC1CCCN(C(=O)CN2C(=O)c3ccccc3C2=O)C1 (configuration not stated) 28.2 µM [inhibitor, partial curve]
O=C(CSc1nc2ncc(Br)cc2[nH]1)Nc1ccc2c(c1)OCO2 35.5 µM [inhibitor, single point]
O=C(CCSc1ccc(Cl)cc1)NC12CC3CC(CC(C3)C1)C2 3.55 µM [inhibitor, full curve]
CCOC(=O)c1cc(-c2ccc(C)cc2)n(CCC(=O)NCCN(C)C)c1C 50.1 µM [inhibitor, single point]
COc1c(C(O)CC(C)C)ccc2c1C(=O)OCc1cc(C)cc(O)c1O2 (configuration not stated) 31.6 µM [inhibitor, single point]
COc1cc(OC)cc(C(=O)Nc2ccc(Nc3ccccc3)cc2)c1 8.91 µM [inhibitor, full curve, poor fit]
Cc1cc(/C=N/n2cnnc2)c(C)n1-c1ccc(OCc2ccc(Cl)cc2)cc1 7.94 µM [inhibitor, full curve]
CSc1nc2ccccc2n1CC(=O)Nc1cc(C(F)(F)F)ccc1N1CCOCC1 39.8 µM [inhibitor, partial curve]
Cc1cccnc1Nc1nc(-c2ccc(O)c(O)c2)cs1 35.5 µM [inhibitor, partial curve]
O=C(Cn1nnc(-c2ccc(F)cc2)n1)OCC(=O)c1ccccc1 35.5 µM [inhibitor, single point]
CCN(CC)CCn1c(NCc2nc3ccccc3n2Cc2ccccc2)nc2ccccc21 11.2 µM [inhibitor, partial curve]
Cc1ccc(C(=O)c2cc(C)sc2N)cc1 35.5 µM [inhibitor, partial curve]
COc1cc(C=O)ccc1OCc1cccc(Br)c1 28.2 µM [inhibitor, single point]
CC(C)(C)c1ccc(OCCCn2ccnc2)cc1 17.8 µM [inhibitor, partial curve]
Cc1[nH]n(-c2ccc(F)cc2)c(=O)c1/C=N/c1sc2c(c1C#N)CCCC2 8.91 µM [inhibitor, partial curve]
CC(C)(C)c1ccc(S(=O)(=O)N2C=CC(C(F)(F)F)=NCC2)cc1 35.5 µM [inhibitor, partial curve]
COc1cccc(-c2nnc3sc(-c4ccccn4)nn23)c1 14.1 µM [inhibitor, partial curve]
CCOC(=O)C1CCN(CCC(=O)Nc2ccc(Br)c(C)c2)CC1 12.6 µM [inhibitor, partial curve]
O=S1(=O)CCOCCN1Cc1ccc(Cl)cc1Cl 39.8 µM [inhibitor, partial curve]

Activity change, negative = displacement, inconclusive:
O=C(N=C1SC2CS(=O)(=O)CC2N1c1ccc(Br)cc1Cl)C1CC1 (configuration not stated) -24.3% [inhibitor]

Activity change, negative = displacement, inactive:
COC(=O)CSc1nc(C(C)C)nc2ccccc12 -15.6%
CCc1oc(C(=O)O)cc1COC -5.66%
Cc1ccc2c(c1)N(C)/C(=C/c1cccc[n+]1C)S2 -6.5%
Cc1ccc(N(C(=O)c2csnn2)C(C(=O)NC(C)(C)C)c2cccs2)cc1 (configuration not stated) -8.02%
COc1cc(/C=N/N=C2/NC(=O)C(CC(=O)O)S2)ccc1OCc1ccc(Cl)cc1 (configuration not stated) -3.91%
CCN1CSC(=S)N(Cc2ccc(OC)cc2)C1 -3.93%
COc1cccc(C(=O)NC(=O)Nc2cc(C)on2)c1 -6.22%
COc1ccccc1Cn1c(=S)[nH]c2cc(C(=O)N3CCCC3)ccc2c1=O -13.7%
CSCC[C@H](NC(=O)[C@H](Cc1ccccc1)NC(=O)[C@H](Cc1cnc[nH]1)NC(=O)CNC(=O)[C@@H](NC(=O)[C@H](C)NC(=O)[C@H](Cc1c[nH]c2ccccc12)NC(=O)[C@H](CCC(N)=O)NC(=O)[C@@H]1CCCN1C(=O)[C@@H](NC(=O)[C@@H]1CCC(=O)N1)C(C)C)C(C)C)C(N)=O -6.28%
CC(=O)COc1cc(C)cc2oc(=O)c(C)c(C)c12 -8.6%
CC(C)c1ccc(S(=O)(=O)/N=C2/C=C(Sc3ncn[nH]3)C(=O)c3ccccc32)cc1 -14.7%
CSCCC(NS(=O)(=O)c1ccc(Cl)cc1)C(=O)OCc1c(Cl)cccc1Cl (configuration not stated) 7.37%
CCOc1ccccc1C(=O)Nc1ccc2c(c1)N(C)C(=O)c1ccccc1S2 -13.2%
O=C(Nc1ccc(Oc2ccccc2)cc1)c1ccc(Cn2c(=O)[nH]c3ccsc3c2=O)cc1 -12.8%
CCOC(=O)c1ccc(NC(=O)c2ccccc2)cc1 -2.39%
O=C1CCCC2=C1C(c1ccc(Br)cc1)c1c([nH]c(=S)[nH]c1=O)N2 (configuration not stated) -8.03%
